{"source": "PubChem BioAssay AID493208", "about": "(National Center for Advancing Translational Sciences (NCATS), 2011)", "note": "Screen size: about 44,000 compounds; about 340 (0.77%) were called active. About 5% were inconclusive and are not listed. The call rests on the fitted dose curve; in most records, active means well fitted inhibition curve with a large enough effect; inconclusive means small, poorly fitted or top-dose-only effect; inactive means flat fitted curve, though single readings scatter. This is one part of the list. Potency means the concentration at half of the fitted maximal effect."}
{"assay": "Acumen qHTS Assay for Inhibitors of the mTORC1 Signaling Pathway in MEF (Tsc2-/-, p53-/-) Cells: Sytravon; further: nearly all actives have a fitted effect of over 50% in size;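 on activity change, negative = inhibition: plate controls were DMSO for no effect and rapamycin for full effect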", "details": "phospho-rpS6 immunofluorescence/PI, 24 h; series mostly up to 38.3 µM; activity change, negative = inhibition: at the top concentration", "in_short": "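Tsc2-/-, p53-/- mouse embryonic fibroblasts (empty-vector line) exposed to compound 24 hrs at 37 C, fixed, immunostained for phospho-rpS6 and counterstained with propidium iodide. Acumen laser scanning gives % positive cells from Alexa 488/PI ratio, thresholded using 7.5 nM rapamycin; PI count gives viability.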"}
{"smiles": "Cc1ccc(CN2C(=O)N(c3ccc(F)cc3)C(=O)C2CC(=O)Nc2ccc(Cl)cc2)cc1", "note": "(stereo unspecified)", "activity change, negative = inhibition": "inactive: -18.1%"}
{"smiles": "COC(=O)CN1C(=O)CSc2ccc(S(=O)(=O)Nc3cccc(Br)c3)cc21", "activity change, negative = inhibition": "inactive: -1.09%"}
{"smiles": "Cc1ccc(NC(=O)CSc2nnc(-c3cc4occc4n3C)n2-c2ccccc2C)c(Cl)c1", "activity change, negative = inhibition": "inactive: -12.5%"}
{"smiles": "O=C(NCCc1ccccc1)C1CCN(c2ncnc3c2nc2n3CCCCC2)CC1", "activity change, negative = inhibition": "inactive: -12.1%"}
{"smiles": "COc1ccc(NC(=O)CSC2=Nc3ccccc3C3=NC(CCC(=O)NCc4cccs4)C(=O)N23)cc1", "note": "(stereo unspecified)", "activity change, negative = inhibition": "inactive: -9.26%"}
{"smiles": "Cc1ccc(C)c(Cn2c3ccccc3c3cnn(CC(=O)NC4CCC(C)CC4)c(=O)c32)c1", "note": "(stereo unspecified)", "activity change, negative = inhibition": "inactive: -1.12%"}
{"smiles": "CC1=C(C(=O)NCc2cccc(Br)c2)C2(CCCCC2)OC1=O", "activity change, negative = inhibition": "inactive: 3.06%"}
{"smiles": "CCCCOC(=O)/C(C#N)=C/c1ccc(-c2cccc(C(F)(F)F)c2)o1", "activity change, negative = inhibition": "inactive: 8.97%"}
{"smiles": "CCOc1ccc(-c2nonc2NC(=O)c2ccco2)cc1", "activity change, negative = inhibition": "inactive: 0.175%"}
{"smiles": "CCOc1ccc(NC(=O)CSc2nc3c(oc4ccccc43)c(=O)n2-c2cc(C)cc(C)c2)cc1", "activity change, negative = inhibition": "inactive: 0.8%"}
{"smiles": "COc1cc(/C=C/c2nc(C#N)c(N3CCCCC3)o2)cc(OC)c1OC", "activity change, negative = inhibition": "inactive: -0.447%"}
{"smiles": "Cc1ccccc1CNC(=O)C1CCN(S(=O)(=O)Cc2ccccc2)CC1", "activity change, negative = inhibition": "inactive: -5.55%"}
{"smiles": "Cc1nnc(N2CCC(C(=O)Nc3ccc(F)cc3)CC2)c2nn(-c3ccc(Cl)cc3)c(C)c12", "activity change, negative = inhibition": "inactive: -22.5%"}
{"smiles": "Cc1ccc(C(=O)Nc2c(-c3ccccc3)nc3ccccn23)cc1", "activity change, negative = inhibition": "inactive: -12%"}
{"smiles": "Cc1ccc(C2c3[nH]c4ccccc4c3CCN2C(=O)c2ccccc2Br)cc1", "note": "(stereo unspecified)", "activity change, negative = inhibition": "inactive: 2.6%"}
{"smiles": "CCC(C(=O)OCc1cc(=O)n2nc(C)sc2n1)c1ccccc1", "note": "(stereo unspecified)", "activity change, negative = inhibition": "inactive: 3.44%"}
{"smiles": "Cc1cccc(-c2noc(CN(C3CCCCC3)S(=O)(=O)c3ccc(F)cc3)n2)c1", "activity change, negative = inhibition": "inactive: -16.4%"}
{"smiles": "COc1ccc(OC)c(NC(=O)c2c(NCc3sccc3C)sc3c2CCCCC3)c1", "activity change, negative = inhibition": "inactive: -13.6%"}
{"smiles": "COc1ccc2c(c1)-c1nc(NC(=O)c3ccc(OC)c(Br)c3)sc1CC2", "activity change, negative = inhibition": "inactive: -16.8%"}
{"smiles": "COc1ccc(CNC(=O)CN(c2ccc(C(C)C)cc2)S(=O)(=O)c2c(C)nn(C)c2C)cc1", "activity change, negative = inhibition": "inactive: -5.61%"}
{"smiles": "COc1ccc(NC(=O)CSc2nc3ccccc3nc2N2CCC(C)CC2)cc1", "activity change, negative = inhibition": "inactive: -1.16%"}
{"smiles": "Cc1cc(C)c(C)c(OCC(=O)Nc2ccc(S(=O)(=O)Nc3nc(C)cc(C)n3)cc2)c1", "activity change, negative = inhibition": "inactive: 0.785%"}
{"smiles": "COc1ccccc1NC(=O)CCn1nc(-c2ccccc2OC)c2c(C)cc(C)nc21", "activity change, negative = inhibition": "inactive: 1.19%"}
{"smiles": "Cc1ccccc1NC(=O)Nc1nnc(N2CCCCCC2)s1", "activity change, negative = inhibition": "inactive: -6.19%"}
{"smiles": "CCC(=O)N1CCc2cc(Br)cc(S(=O)(=O)CCC(=O)N3CCN(c4ccc(F)cc4)CC3)c21", "activity change, negative = inhibition": "inactive: 0%"}
{"smiles": "Cc1ccccc1OCC(=O)OCc1cc(=O)n2nc(C3CC3)sc2n1", "activity change, negative = inhibition": "inactive: -1.72%"}
{"smiles": "O=C(CSC1=Nc2ccccc2N=C(c2ccc(F)cc2)C1)Nc1cccc(C(F)(F)F)c1", "activity change, negative = inhibition": "inactive: -6.3%"}
{"smiles": "CCOC(=O)C1CCCN(C(=O)C2CCN(S(=O)(=O)c3c(C)noc3/C=C/c3ccccc3F)CC2)C1", "note": "(stereo unspecified)", "activity change, negative = inhibition": "inactive: -1.45%"}
{"smiles": "CCc1ccc(NC(=O)CC2C(=O)N(c3cccc(C)c3)C(=O)N2CCC(C)C)cc1", "note": "(stereo unspecified)", "activity change, negative = inhibition": "inactive: 0.684%"}
{"smiles": "COc1ccc(CC(=O)NCCc2sc3nc(-c4ccc(OC)cc4)nn3c2C)cc1", "activity change, negative = inhibition": "inactive: -0.767%"}
{"smiles": "CCCN(CCC)CCCNC(=O)c1cn(CC)c2ccc(S(=O)(=O)N(C)C3CCCCC3)cc2c1=O", "activity change, negative = inhibition": "inactive: 0.251%"}
{"smiles": "CCc1ccc(OCc2cc(=O)n3c4c(sc3n2)CCCC4)cc1", "activity change, negative = inhibition": "inactive: -13.8%"}
{"smiles": "COc1cccc(N2CCN(C(=O)C3Cc4ccccc4N3C(C)=O)CC2)c1", "note": "(stereo unspecified)", "activity change, negative = inhibition": "inactive: 0.473%"}
{"smiles": "O=C(C1CCC1)N1CCCc2cc(S(=O)(=O)N3CCN(c4ccccc4)CC3)ccc21", "activity change, negative = inhibition": "inactive: 0.805%"}
{"smiles": "Cc1cccc(-c2nc3ccccc3n2Cc2ccccc2)c1", "activity change, negative = inhibition": "inactive: -22.6%"}
{"smiles": "CC(C)OC(=O)C(C(=O)C(F)(F)F)c1cc(NS(=O)(=O)c2ccc3c4c(cccc24)C(=O)N3)ccc1O", "note": "(stereo unspecified)", "activity change, negative = inhibition": "inactive: -16.4%"}
{"smiles": "CCOC(=O)c1c(C)[nH]c(CCC(=O)Nc2c(C)cccc2CC)c1C", "activity change, negative = inhibition": "inactive: -2.82%"}
{"smiles": "CCNc1ncnc2c1nnn2C", "activity change, negative = inhibition": "inactive: -0.492%"}
{"smiles": "CCOC(=O)N1CCc2c(sc(NCc3cccc(F)c3)c2C(=O)Nc2ccc(OC)cc2OC)C1", "activity change, negative = inhibition": "inactive: 1.67%"}
{"smiles": "CCC(=O)Nc1ccccc1-c1nc2ccccc2n(CC(=O)c2ccc(Cl)cc2)c1=O", "activity change, negative = inhibition": "inactive: 1.5%"}
{"smiles": "COc1ccc2c(Sc3ccc(C)cc3)c(C(=O)NCc3ccc(F)cc3)[nH]c2c1", "activity change, negative = inhibition": "inactive: -0.862%"}
{"smiles": "COc1ccccc1NC(=O)C1=C(C)Nc2nc(CCCO)nn2C1c1cccc(O)c1", "note": "(stereo unspecified)", "activity change, negative = inhibition": "inactive: -21.1%"}
{"smiles": "Cc1ccc(S(=O)(=O)N2CCCc3cc(NS(=O)(=O)c4cc(F)ccc4F)ccc32)cc1", "activity change, negative = inhibition": "inactive: 16%"}
{"smiles": "Cn1c(=O)c(=O)n(C)c2cc(S(=O)(=O)N3CCN(c4ccc(F)cc4)CC3)ccc21", "activity change, negative = inhibition": "inactive: -5.16%"}
{"smiles": "COc1cc(C2CC(=O)c3cnc(N4CCN(CCO)CC4)nc3C2)cc(OC)c1OC", "note": "(stereo unspecified)", "activity change, negative = inhibition": "inactive: -22%"}
{"smiles": "O=C(Nc1cccc(NC(=O)c2ccccc2F)c1)c1ccccc1", "activity change, negative = inhibition": "inactive: 11.8%"}
{"smiles": "O=C(Cn1cc(S(=O)(=O)N2CCCC2)c(S(=O)(=O)N2CCCC2)c1)Nc1ccccc1", "activity change, negative = inhibition": "inactive: -2.15%"}
{"smiles": "CC(C)c1ccc(NC(=O)CC2NCCNC2=O)cc1", "note": "(stereo unspecified)", "activity change, negative = inhibition": "inactive: -4.06%"}
{"smiles": "O=C(CSc1nc2c(oc3ccccc32)c(=O)n1-c1ccccc1)Nc1ccccc1F", "activity change, negative = inhibition": "inactive: -3.55%"}
{"smiles": "CCCC(=O)Nc1cc(C(=O)NCc2ccccc2)ccc1S(=O)(=O)c1ccc(Cl)cc1", "activity change, negative = inhibition": "inactive: 0.956%"}
{"smiles": "CCOC(=O)c1ccc(N2C(=O)c3n[nH]c(-c4ccco4)c3C2c2ccc(OCC)cc2)cc1", "note": "(stereo unspecified)", "Potency": "active: 13.1 µM"}
{"smiles": "O=C(Nc1nc2n(n1)C(c1ccc(F)cc1)C=C(c1ccccc1)N2)c1ccco1", "note": "(stereo unspecified)", "activity change, negative = inhibition": "inactive: 1.58%"}
{"smiles": "O=c1c(-c2cc(-c3ccccc3)nc3c2COc2ccc(Cl)cc2-3)coc2ccc(F)cc12", "activity change, negative = inhibition": "inactive: 5.49%"}
{"smiles": "Cc1c(Cl)cccc1NC(=O)c1ccc2c(c1)CCN2S(=O)(=O)c1ccccc1", "activity change, negative = inhibition": "inactive: -5.55%"}
{"smiles": "Cc1c(C(=O)Nc2ccc(C(=O)O)cc2)nnn1-c1ccccc1", "activity change, negative = inhibition": "inactive: -21.2%"}
{"smiles": "Cc1ccc(CN2CCCN(CC(=O)Nc3ccc(C)cc3C)S2(=O)=O)cc1", "activity change, negative = inhibition": "inactive: -4%"}
{"smiles": "CN(C)CCNc1ncnc2c1cnn2-c1cccc(Cl)c1", "activity change, negative = inhibition": "inactive: -3.56%"}
{"smiles": "CN(C)c1ccc(C(CNC(=O)c2ccccc2C(F)(F)F)N2CCOCC2)cc1", "note": "(stereo unspecified)", "activity change, negative = inhibition": "inactive: 2.68%"}
{"smiles": "COc1ccc(CNC(=O)C2CCCN(S(=O)(=O)c3cccc4nsnc34)C2)cc1", "note": "(stereo unspecified)", "activity change, negative = inhibition": "inactive: -12%"}
{"smiles": "COC(=O)c1c(NC(=O)c2nc(SCc3ccc(F)cc3)ncc2Cl)sc2c1CCCC2", "activity change, negative = inhibition": "inactive: -1.06%"}
{"smiles": "CCOc1ccccc1-c1noc(CSc2nnc(-c3ccccc3)n2-c2ccc(F)cc2)n1", "activity change, negative = inhibition": "inactive: -0.927%"}
